Most values come without repeats; read them as rough.
Assays:
[1] = tested on: CHO-K1; assay: micronucleus frequency (% of nucleated events); higher = more micronuclei (genotoxic)
[2] = tested on: CHO-K1; assay: relative survival (nuclei to bead ratio vs DMSO control) (% of vehicle control); higher = more surviving cells
Procedure: (§1)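 Flow-cytometric in vitro micronucleus assay (Litron MicroFlow) in CHO-K1 cells in 96-well plates, 19 concentrations (4.5-200 µM, n=1 per concentration). Without S9, cells were exposed for 24 h and sampled at 48 h. With Aroclor 1254-induced rat liver S9, cells were exposed for 3-4 h and sampled at 27-28 h. Read-outs are %MN and %hypodiploid nuclei relative to nucleated events, and relative survival as the nuclei-to-bead ratio versus the 1% DMSO vehicle control (x100).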

[3] = tested on: CHO-K1; assay: hypodiploid nuclei frequency (% of nucleated events); higher = more hypodiploid events (aneugenic)
Procedure: as §1
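Wherever hypodiploid nuclei frequency (% of nucleated events) is given: hypodiploid nuclei gated on a flow cytometer with 488 nm excitation after SYTOX Green staining, cultures at 37 °C, positive controls vinblastine without S9 and cyclophosphamide with S9.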
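Wherever micronucleus frequency (% of nucleated events) is given: cells lysed with nuclei stained by SYTOX Green, then micronucleus-gated events counted against nucleated events by flow cytometry with 488 nm excitation.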
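Wherever relative survival (nuclei to bead ratio vs DMSO control) is given: Lysed-cell nuclei stained with SYTOX Green and counted against counting beads by flow cytometry at 488 nm excitation, with vinblastine (no S9) and cyclophosphamide (plus S9) as positive controls.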

CC1(C)C(=O)N(Cl)C(=O)N1Cl [1,3-Dichloro-5,5-dimethylhydantoin]
Details | hypodiploid nuclei frequency, [3] [%] | micronucleus frequency, [1] [%] | relative survival, [2]
concentration: 4.5 (µM), S9 metabolic activation: with S9, exposure time: 3-4 hours | 0.28 | 1.9 | 143
concentration: 4.5 (µM), S9 metabolic activation: without S9, exposure time: 24 hours | 0.6 | 1.78 | 103
concentration: 5.63 (µM), S9 metabolic activation: with S9, exposure time: 3-4 hours | 0.32 | 2.42 | 133
concentration: 5.63 (µM), S9 metabolic activation: without S9, exposure time: 24 hours | 0.7 | 1.9 | 89
concentration: 7.04 (µM), S9 metabolic activation: with S9, exposure time: 3-4 hours | 0.2 | 2.76 | 125
concentration: 7.04 (µM), S9 metabolic activation: without S9, exposure time: 24 hours | 0.68 | 2.36 | 116
concentration: 8.8 (µM), S9 metabolic activation: with S9, exposure time: 3-4 hours | 0.28 | 1.94 | 130
concentration: 8.8 (µM), S9 metabolic activation: without S9, exposure time: 24 hours | 0.52 | 1.44 | 109
concentration: 11 (µM), S9 metabolic activation: with S9, exposure time: 3-4 hours | 0.3 | 2.08 | 137
concentration: 11 (µM), S9 metabolic activation: without S9, exposure time: 24 hours | 0.72 | 1.52 | 89.8
concentration: 13.7 (µM), S9 metabolic activation: with S9, exposure time: 3-4 hours | 0.46 | 2.52 | 121
concentration: 13.7 (µM), S9 metabolic activation: without S9, exposure time: 24 hours | 0.68 | 1.98 | 137
concentration: 17.2 (µM), S9 metabolic activation: with S9, exposure time: 3-4 hours | 0.24 | 2.16 | 113
concentration: 17.2 (µM), S9 metabolic activation: without S9, exposure time: 24 hours | 0.72 | 2.06 | 117
concentration: 21.5 (µM), S9 metabolic activation: with S9, exposure time: 3-4 hours | 0.22 | 1.9 | 106
concentration: 21.5 (µM), S9 metabolic activation: without S9, exposure time: 24 hours | 0.7 | 2.52 | 114
concentration: 26.8 (µM), S9 metabolic activation: with S9, exposure time: 3-4 hours | 0.28 | 2.34 | 147
concentration: 26.8 (µM), S9 metabolic activation: without S9, exposure time: 24 hours | 0.86 | 2.16 | 79.3
concentration: 33.6 (µM), S9 metabolic activation: with S9, exposure time: 3-4 hours | 0.3 | 2.26 | 115
concentration: 33.6 (µM), S9 metabolic activation: without S9, exposure time: 24 hours | 0.88 | 2.52 | 106
concentration: 41.9 (µM), S9 metabolic activation: with S9, exposure time: 3-4 hours | 0.2 | 2.08 | 112
concentration: 41.9 (µM), S9 metabolic activation: without S9, exposure time: 24 hours | 0.94 | 2.52 | 92.9
concentration: 52.4 (µM), S9 metabolic activation: with S9, exposure time: 3-4 hours | 0.36 | 1.56 | 133
concentration: 52.4 (µM), S9 metabolic activation: without S9, exposure time: 24 hours | 0.66 | 2.22 | 72.9
concentration: 65.5 (µM), S9 metabolic activation: with S9, exposure time: 3-4 hours | 0.28 | 1.66 | 83.8
concentration: 65.5 (µM), S9 metabolic activation: without S9, exposure time: 24 hours | 0.96 | 2.42 | 86.2
concentration: 81.9 (µM), S9 metabolic activation: with S9, exposure time: 3-4 hours | 0.36 | 3.46 | 103
concentration: 81.9 (µM), S9 metabolic activation: without S9, exposure time: 24 hours | 0.78 | 2.06 | 83.6
concentration: 102 (µM), S9 metabolic activation: with S9, exposure time: 3-4 hours | 0.32 | 2.48 | 99
concentration: 102 (µM), S9 metabolic activation: without S9, exposure time: 24 hours | 0.88 | 1.94 | 85.2
concentration: 128 (µM), S9 metabolic activation: with S9, exposure time: 3-4 hours | 0.48 | 2.86 | 111
concentration: 128 (µM), S9 metabolic activation: without S9, exposure time: 24 hours | 1.16 | 2.38 | 88.7
concentration: 160 (µM), S9 metabolic activation: with S9, exposure time: 3-4 hours | 0.34 | 2.7 | 98
concentration: 160 (µM), S9 metabolic activation: without S9, exposure time: 24 hours | 1.24 | 2.74 | 90.5
concentration: 200 (µM), S9 metabolic activation: with S9, exposure time: 3-4 hours | 0.44 | 2.04 | 104
concentration: 200 (µM), S9 metabolic activation: without S9, exposure time: 24 hours | 1.34 | 2.14 | 79.3

— the supplement of paper PMC9151546
